About 6,900 (2%) of roughly 340,000 compounds were called active. Cut-off read from the data, not from the text of the source: active = inhibition above about 30%; inactive = below that, where a call was filed. The list shows a part of the results, in another mix than the full data. The source gives no active or inactive call for entries shown without one.
molecular target: D(2) dopamine receptor (Homo sapiens) (UniProt P14416); assay: HTS Assay for Allosteric Antagonists of the Human D2 Dopamine Receptor: Primary Screen for Antagonists; conditions: HEK293 TREx D2 cells, calcium flux, dopamine EC80; at 10 µM; stronger effect = higher value; note: 0% is about no effect
UniProt P14416, sequence (P14416 whole entry, looked up): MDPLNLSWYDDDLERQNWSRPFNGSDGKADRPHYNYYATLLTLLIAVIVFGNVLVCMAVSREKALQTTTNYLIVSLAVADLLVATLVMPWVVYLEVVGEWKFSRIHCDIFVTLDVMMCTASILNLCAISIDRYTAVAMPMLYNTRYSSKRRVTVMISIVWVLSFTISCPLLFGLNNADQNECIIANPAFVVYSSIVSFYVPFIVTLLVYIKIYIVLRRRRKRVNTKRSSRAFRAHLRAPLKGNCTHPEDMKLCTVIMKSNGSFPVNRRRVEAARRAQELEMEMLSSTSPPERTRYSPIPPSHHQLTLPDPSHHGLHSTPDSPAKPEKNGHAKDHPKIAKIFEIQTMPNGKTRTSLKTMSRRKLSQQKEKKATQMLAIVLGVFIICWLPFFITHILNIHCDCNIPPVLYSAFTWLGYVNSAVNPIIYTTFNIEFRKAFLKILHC
In short: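 Dopamine at EC80 is the agonist stimulus; test compounds precede it by 180 s. Calcium flux read kinetically in a force-coupled, inducible HEK293 T-REx D2 cell line.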

Row | Structure (SMILES) | inhibition
1 | COc1ccc(-c2nc3scc(CCNS(=O)(=O)c4ccc(NC(C)=O)cc4)n3n2)cc1 | 10.7%
2 | COc1cc2nc(SCC(=O)Nc3ccccc3F)n3nc(-c4ccccc4)nc3c2cc1OC | 5.73%
3 | COc1ccc(C)cc1N(C)C(=O)c1c2c(nc3ccccc13)C(=O)N(C1CCCCC1)C2 | -3.47%
4 | Cc1cccc(OCCn2c(SCC(=O)O)nc3ccccc32)c1 | -2.82%
5 | COc1ccc(CNS(=O)(=O)c2ccc(-c3cnc(C4CC4)o3)cc2)cc1 | -5.55%
6 | COc1ccc(Nc2ncc(C(=O)N3CCN(c4ccc(F)cc4)CC3)c3ccccc23)cc1 | 6.17%
7 | c1ccc(CN2CCN(c3ncccn3)CC2)cc1 | active: 83.6%
8 | C=C(C)Cn1c(=O)c2c(nc3n2CCN3c2ccc(F)cc2)n(C)c1=O | 3.46%
9 | CCOc1ccc(NCc2cccn2-c2nnc(N3CCC(C(=O)NCCOC)CC3)s2)cc1 | -4.45%
10 | Cc1cc(=O)n2nc(N3CCC(C(=O)NCc4ccc(F)cc4)CC3)sc2n1 | -5.09%
11 | COc1ccccc1/C=C/c1nc(C#N)c(NCCc2ccccc2)o1 | -19.5%
12 | CCOc1ccc(-c2nc(Cn3ccn4nc(-c5ccc(OCC)c(Cl)c5)cc4c3=O)c(C)o2)cc1 | -1.47%
13 | Cc1ccccc1Nc1cc(C(=O)NCc2cccs2)c2ccccc2n1 | -9.68%
14 | CCCS(=O)(=O)N1CCCC(C(=O)NCCOC)C1 (stereo not given) | -8.22%
15 | CCCCN(CCCC)C1=C(C(=O)c2ccccc2)N(C)S(=O)(=O)c2ccccc21 | 17.7%
16 | Cc1ccc2c(=O)cc(C(=O)Nc3sc4c(c3C(=O)NCc3ccccc3)CCCC4)oc2c1C | -6.49%
17 | O=C(CN1C(=O)CCc2cc(S(=O)(=O)N3CCOCC3)ccc21)Nc1cccc(C(F)(F)F)c1 | 8.49%
18 | COc1ccc(NC(=O)CNC(=O)Cn2c(C)cc3ccccc3c2=O)cc1OC | -2.4%
19 | O=C(Nc1sc2c(c1C(=O)N1CCCCC1)CCCC2)c1ccccc1Cl | 9.03%
20 | Cc1noc(Cn2c(=O)c3cc4c(cc3n(CC(=O)Nc3ccccc3Br)c2=O)OCO4)n1 | 10.8%
21 | CCCCN1C(C(=O)c2ccccc2)=C(OC(C)=O)c2ccccc2S1(=O)=O | 2.12%
22 | CN(C)c1ccc(CNC(=O)CCS(=O)(=O)c2ccc3c(c2)oc(=O)n3C)cc1 | 1.99%
23 | COc1ccccc1OCC(=O)NCc1nc(-c2ccc(Cl)cc2)no1 | 1.65%
24 | CCOc1ccc(C(=O)Nc2ccc(S(=O)(=O)Nc3nc(C)cc(C)n3)cc2)cc1OC | -2.02%

Row | Structure (SMILES) | inhibition
25 | CC1=C(c2ccc(C)c(C)c2)S(=O)(=O)N(Cc2ccc(C(=O)NC(C)c3ccccc3)cc2)C1=O (stereo not given) | 4.59%
26 | O=C(COc1ccccc1)Nc1ccccc1OCc1cc(=O)n2ccccc2n1 | 18.5%
27 | O=C(Nc1c(C(=O)O)oc2ccccc12)c1ccc(C(F)(F)F)cc1 | -17.9%
28 | O=C(CSc1cn(CC(=O)N2CCOCC2)c2ccccc12)Nc1ccccc1 | -10.1%
29 | CCOc1ccc(CN2CCC(n3nccc3NC(=O)c3ccccc3OC)CC2)cc1 | active: 38.2%
30 | O=C(COCc1cc(-c2ccc3c(c2)OCO3)on1)NCc1ccccc1Cl | -9.68%
31 | O=C(Nc1ccc(F)cc1F)c1ccc2c(O)c(S(=O)(=O)c3ccc(Cl)cc3)c(=O)[nH]c2c1 | 11.8%
32 | COc1cc(NC(=O)CSc2nc3nc(C)c(Cc4ccc(C)cc4)c(C)n3n2)cc(OC)c1OC | -13.3%
33 | CCc1ccc(C2c3c(oc4ccc(F)cc4c3=O)C(=O)N2c2nc(C)c(C(=O)OC)s2)cc1 (stereo not given) | 1.06%
34 | Cn1c(=O)c2c(nc(Oc3ccccc3)n2Cc2c(Cl)cccc2Cl)n(C)c1=O | 5.81%
35 | COc1ccc(N(CC(=O)Nc2cc(C)ccc2C)S(=O)(=O)c2ccc(OC)c(OC)c2)cc1 | -1.01%
36 | O=C(COc1ccccc1[N+](=O)[O-])Nc1cccc(-c2nc3ccccc3s2)c1 | 3.29%
37 | COCCCNC(=O)CSc1nc2cc3c(cc2c(=O)n1CCCC(=O)NCc1ccc(OC)cc1)OCO3 | 9.34%
38 | Cc1c(Cl)cccc1NC(=O)Nc1nnc(N(C)Cc2ccccc2)s1 | -2.85%
39 | CC1=C(C(=O)NCc2ccccc2C)C2(CCCCC2)OC1=O | -16.7%
40 | Cc1c(NC(=O)C(C)(C)Oc2ccc(Cl)cc2)cccc1-c1nc2ncccc2o1 | 13.3%
41 | CC(=O)c1ccc(NC(=O)Cn2cc(S(=O)(=O)Cc3ccccc3Cl)c3ccccc32)cc1 | 0.728%
42 | COc1ccc(Br)cc1C(=O)Nc1ccc(-c2nc3cc(Cl)ccc3o2)cc1 | 6.22%
43 | Cc1c(NC(=O)c2cccc3c(Cl)cccc23)cccc1-c1nc2ccccc2o1 | 5.73%
44 | O=C(CCS(=O)(=O)c1cc(Br)cc2c1N(C(=O)C1CC1)CC2)NCc1ccccc1Cl | 11.5%
45 | COC(=O)c1sccc1S(=O)(=O)N(CC(=O)Nc1c(C)cccc1C)c1ccc(C)c(C)c1 | -0.401%
46 | COc1ccc2c(c1)c(=O)c(S(=O)(=O)c1ccc(C)cc1)cn2Cc1ccccc1C | -8.57%
47 | COC(=O)C(C)n1nnc2sc(-c3ccccc3)cc2c1=O (stereo not given) | 7.26%
48 | CC1CCN(CCCCOc2ccccc2[N+](=O)[O-])CC1 | active: 79.8%

Row | Structure (SMILES) | inhibition
49 | CCOC(=O)N1CCc2c(sc3c2c(=O)n(Cc2ccccc2)c(=O)n3CC(=O)Nc2ccc(C)c(C)c2)C1 | 9.15%
50 | CCC(C(=O)Nc1cc(F)ccc1F)n1nc(-c2cc(C)ccc2C)ccc1=O (stereo not given) | -14%
51 | COc1ccc(NC(=O)c2c(NCc3sccc3C)sc3c2CCCCC3)c(OC)c1 | -26.6%
52 | COC(=O)c1ccc(NC(=O)CSc2ncc3c(n2)-c2cc(Cl)ccc2N(Cc2ccccc2)S3(=O)=O)cc1 | 15.5%
53 | CCOc1ccc(CCNC(=O)c2ccc(CS(=O)Cc3cccc(Cl)c3)o2)cc1 (stereo not given) | -6.91%
54 | COc1ccc(C)cc1NC(=O)Cn1c(=O)ccc2cc(S(=O)(=O)N3CCC(C)CC3)ccc21 | -15%
55 | Cc1ccc2c(=O)c(C(=O)c3ccc(Cl)cc3)cn(CC(=O)NC3CCCCC3)c2n1 | 7.38%
56 | CCC(C(=O)Nc1ccccc1OC)n1nc(C)c2sc3ccccc3c2c1=O (stereo not given) | -1.55%
57 | COc1ccc(OC)c(S(=O)(=O)N2c3ccccc3CC2C)c1 (stereo not given) | active: 33%
58 | Clc1ccccc1OCCCCN1CCCCC1 | active: 76.6%
59 | CCN(CCCNC(=O)CSc1cc(=O)n(CC)c2ccccc12)c1cccc(C)c1 | -24.2%
60 | Cc1ccc(NC(=O)c2c(C)oc3nc(C)nc(N4CCCC4)c23)c(C)c1 | -14.8%
61 | CC(Sc1cn(CCNC(=O)c2ccccc2F)c2ccccc12)c1ccccc1 (stereo not given) | -0.0274%
62 | O=C(NCCN1CCN(c2ccccc2)CC1)C1CCN(S(=O)(=O)c2cccc3nsnc23)CC1 | active: 55.5%
63 | COc1ccc(NC(=O)CC2C(=O)N(c3ccc(F)cc3)C(=S)N2NC(=O)c2ccc(Cl)cc2)cc1 (stereo not given) | active: 37.4%
64 | Cc1ccc(S(=O)(=O)Nc2ccc3c(c2)nc(CN2CCCC2)n3C)cc1 | active: 71.6%
65 | COc1cc(C(=O)N2CCc3c([nH]c4ccccc34)C2c2ccc(C)cc2)cc(OC)c1OC (stereo not given) | -11.8%
66 | Nc1c(-c2nc(-c3ccc4c(c3)OCO4)cs2)c2ccccn2c1C(=O)c1ccccc1 | 2.48%
67 | CCCCn1c(NCc2cc(Cl)ccc2O)nc2ccccc21 | -14.7%
68 | CCOc1cc(C(=O)Nc2ccc([N+](=O)[O-])cn2)cc(OCC)c1OCC | active: 69%
69 | CCCOc1ccc(C(=O)Nc2ccc(Cl)c(-c3nc4ncccc4o3)c2)cc1 | 7.23%
70 | O=C(CSc1nc(-c2cccs2)nc2cc(=O)[nH]n12)Nc1ccccc1F | 9.72%
71 | COc1ccccc1N1CCN(CCC(=O)Nc2ccc3c(c2)OCO3)CC1 | active: 79.7%
72 | CCOc1ccc(CCNC(=O)CSc2cc(=O)n(C)c3cc(Cl)ccc23)cc1OCC | 9.29%

Row | Structure (SMILES) | inhibition
73 | Cc1c(-c2nsc(NC(=O)c3cccc(Cl)c3)n2)nnn1-c1ccccc1C(F)(F)F | -6.27%
74 | COc1ccccc1N1CCN(CC(O)COc2c(OC)cccc2OC)CC1 (stereo not given) | active: 123%
75 | CCOc1ccc(CCNC(=O)CCc2c(C)nc3cc(-c4ccccc4OC)nn3c2C)cc1 | 1.59%
76 | CSc1ccc(CCNC(=O)CN2C(=O)c3cccnc3Oc3ccc(Cl)cc32)cc1 | -6.66%
77 | Cc1nn(-c2ccccc2)c(N)c1C(O)(CSc1nccn1C)C(F)(F)F (stereo not given) | active: 37.5%
78 | COc1ccc(NC(=O)Cn2cnc3ccc(S(=O)(=O)N4CCC(C)CC4)cc3c2=O)cc1OC | 1.15%
79 | CCOc1ccc(-c2nc(SCC(=O)NC3CCCC3)c(-c3ccccc3)[nH]2)cc1OC | 11.2%
80 | CCOc1ccc(NC(=O)/C=C\C(=O)N(c2ccc(C(C)C)cc2)C(C(=O)NCc2ccco2)c2ccc(F)cc2)cc1 (stereo not given) | 8.39%
81 | COc1ccc(-c2cnn3c(C)cc(C)nc23)cc1OC | 2.42%
82 | COc1ccc(CNCCC(c2ccccc2)c2ccc3c(c2)OCO3)cc1 (stereo not given) | -18%
83 | CCCC1=Nc2cc(C(=O)NCCc3ccccc3)ccc2Sc2ccc(C)cc21 | 7.15%
84 | COc1ccccc1NC(=O)NCc1cccn1Cc1ccccc1 | 14.7%
85 | COc1cccc(OC)c1C(=O)NCCSC1CCCCC1 | active: 40.5%
86 | Cc1cc(Br)ccc1NC(=O)c1ccc(NS(=O)(=O)c2c(C)noc2C)cc1 | 8.77%
87 | Cc1ccc2c(c1)N(C(=O)Nc1cccc(C)c1C)CCO2 | 2.92%
88 | CC1CCC(N2CC(=O)N(C3CCCCC3)C(c3ccc(F)cc3)C2=O)CC1 (stereo not given) | -0.98%
89 | CS(=O)(=O)N1CCc2cc(C(=O)N3CCN(c4ccccc4)CC3)ccc21 | -0.321%
90 | CCCc1nnc(NC(=O)c2cc(=O)c3cc(Cl)ccc3o2)s1 | 12.4%
91 | CC1Cc2cc(S(=O)(=O)NCCc3ccccc3)ccc2N1C(=O)C1CCC1 (stereo not given) | -8.4%
92 | CC(=O)c1cc(-c2ccccc2)n(CCC(=O)Nc2ccc(C)cc2C)c1C | -17.4%
93 | COc1ccc(N2CC(NC(=O)c3cc4ccccc4o3)CC2=O)cc1 (stereo not given) | -8.4%
94 | Cc1cc(C(=O)NCc2ccc(Cl)cc2)c2c(C)nn(-c3ccccc3)c2n1 | 3.8%
95 | COc1ccccc1CNC(=O)CCC1N=C2c3ccccc3N=C(SCc3ccc(C)cc3)N2C1=O (stereo not given) | 7.27%

Reference: PubChem BioAssay AID485344 (National Center for Advancing Translational Sciences (NCATS), 2010)
